# According to the supplement of paper PMC9135407:
# Several values for one entry are separate records, joined by “and”; a condition that tells them apart may be missing. Identical values can stand only once. Counter-ions that a name gives are not always drawn. In all, about 5,800 compounds went through this assay and about 620 (11%) showed activity.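 Rule for the calls: active = score above a cut-off or among the top three wells of a plate; in these data no inactive exceeds 0.85.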 This is a selection; strong and weak results do not stand in their true shares.
# System: primary human hepatic stellate cells (donor 1)
# Test: scaled lipid accumulation score (0 = DMSO-like, 1 = nortriptyline-like); higher = stronger HSC inactivation (lipid re-accumulation), active = hit call of the paper
# Conditions: 48 h
# Procedure: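 Primary lipid accumulation screen in primary human hepatic stellate cell myofibroblasts (donor 1, passage 8) in 384-well plates. 100 nL of library compound was pin-transferred into 30 µL medium in duplicate, and cells were treated for 48 h. The 'Scaled' score combines distance from plate baseline, toxicity and reproducibility penalties, and is normalised to nortriptyline (positive) and DMSO (negative) controls on each plate. A hit is defined as scaled >0.85 or among the top 3 wells per plate.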
# [1] = library stock concentration: 1 mM
# [2] = library stock concentration: 10 mM
# [3] = library stock concentration: 4.9 mM
# [4] = library stock concentration: 3.33 mM
# [5] = library stock concentration: 80 uM
# [6] = library stock concentration: 400 uM
# [7] = library stock concentration: 2 mM
smiles,measurement,setting,value
CCCCC/C=C\C/C=C\C/C=C\C/C=C\CCCC(=O)S[C@H](COCCCCCCCCCCCCCCCC)COP(=O)([O-])OCC[N+](C)(C)C [Arachidonoyl thio-PC],scaled lipid accumulation score,[1],inactive: ≤ 0
"CCCCCCCCCCC/C=C\C(C)(C)/C=C\CCCC(=O)O [7,7-Dimethyl-(5Z,8Z)-eicosadienoic acid]",scaled lipid accumulation score,[2],inactive: 0.226
CCCCCCCCCCCCC[N+](C)(C)Cc1ccccc1 [Benzalkonium chloride],scaled lipid accumulation score,[2],inactive: 0.182
Cn1c(-c2ccc3c(c2)OCO3)cc(=O)c2ccccc21 [Graveoline],scaled lipid accumulation score,,inactive: ≤ 0
CCCSc1ccc2nc(NC(=O)OC)[nH]c2c1 [Albendazole],scaled lipid accumulation score,[2],active: 0.892
CCOc1ccccc1OCCN[C@H](C)Cc1ccc(OC)c(S(N)(=O)=O)c1 [Tamsulosin HCl],scaled lipid accumulation score,[3],inactive: ≤ 0
CCn1cc(C(=O)O)c(=O)c2cnc(N3CCCC3)nc21 [Piromidic acid],scaled lipid accumulation score,,inactive: ≤ 0
same,scaled lipid accumulation score,[2],inactive: ≤ 0
O=S(=O)(O)CCS [Mesna],scaled lipid accumulation score,[4],inactive: ≤ 0
same,scaled lipid accumulation score,[2],inactive: ≤ 0
same,scaled lipid accumulation score,library stock concentration: 12.2 mM,inactive: ≤ 0
CC(C)Nc1ncccn1,scaled lipid accumulation score,[2],inactive: ≤ 0
CC(C)(C)NC[C@H](O)c1ccc(O)c(CO)c1,scaled lipid accumulation score,[2],inactive: ≤ 0
C#CCN1C(C)=C(C(=O)OC)C(c2cccc([N+](=O)[O-])c2)C(C(=O)OCC)=C1C (stereo unspecified),scaled lipid accumulation score,[2],inactive: 0.007
CCCCCCCCCCCCCCCCOC[C@H](CO)SC(C)=O [2-thio-Acetyl MAGE],scaled lipid accumulation score,[1],inactive: ≤ 0
CC(=O)OCC(=O)[C@@]12N=C(C)O[C@@H]1C[C@H]1[C@@H]3CCC4=CC(=O)C=C[C@]4(C)[C@H]3[C@@H](O)C[C@@]12C [Deflazacort],scaled lipid accumulation score,[4],inactive: ≤ 0
same,scaled lipid accumulation score,[2],inactive: 0.054
CC(=O)OCC(=O)[C@@]12N=C(C)O[C@@H]1C[C@H]1[C@@H]3CCC4=CC(=O)C=C[C@]4(C)[C@H]3[C@@H](O)C[C@@]12C,scaled lipid accumulation score,[2],inactive: ≤ 0
O=C(O)Cc1sc(-c2ccccc2)nc1-c1ccc(Cl)cc1 [Fentiazac],scaled lipid accumulation score,library stock concentration: 6.1 mM,inactive: 0.006
Cl.Cl.Clc1ccccc1CNC[C@H]1CC[C@H](CNCc2ccccc2Cl)CC1,scaled lipid accumulation score,[2],active: 1.48
Cn1nccc1Nc1nccc(-c2ccn([C@H](CO)c3ccc(Cl)c(F)c3)c(=O)c2)n1,scaled lipid accumulation score,[5],inactive: ≤ 0
same,scaled lipid accumulation score,[6],inactive: ≤ 0
same,scaled lipid accumulation score,[7],inactive: ≤ 0
same,scaled lipid accumulation score,[2],inactive: ≤ 0
N=C(N)NCCC[C@H](N)C(=O)O [L-Arginine],scaled lipid accumulation score,[2],inactive: 0.012
CNCCC(Oc1ccc(C(F)(F)F)cc1)c1ccccc1 (stereo unspecified) [Fluoxetine],scaled lipid accumulation score,[2],inactive: 0.637
CNCCC(Oc1ccc(C(F)(F)F)cc1)c1ccccc1 (stereo unspecified) [Fluoxetine hydrochloride],scaled lipid accumulation score,[2],inactive: 0.09
Cc1nc2n(c(=O)c1CCN1CCC(c3noc4cc(F)ccc34)CC1)CCCC2,scaled lipid accumulation score,[2],inactive: ≤ 0
Cc1nc2n(c(=O)c1CCN1CCC(c3noc4cc(F)ccc34)CC1)CCCC2 [Risperidone],scaled lipid accumulation score,,inactive: ≤ 0
same,scaled lipid accumulation score,[4],inactive: ≤ 0
same,scaled lipid accumulation score,[3],inactive: 0.026
same,scaled lipid accumulation score,[2],inactive: 0.213
CC(=O)Nc1ccc(CC(=O)O)cc1,scaled lipid accumulation score,[2],inactive: ≤ 0
"C[C@@H](CN1CC(=O)NC(=O)C1)N1CC(=O)NC(=O)C1 [Dexrazoxane HCl (ICRF-187, ADR-529)]",scaled lipid accumulation score,[4],inactive: ≤ 0
same,scaled lipid accumulation score,[2],inactive: ≤ 0
C[C@@H](CN1CC(=O)NC(=O)C1)N1CC(=O)NC(=O)C1 [Dexrazoxane hydrochloride],scaled lipid accumulation score,[2],inactive: 0.02
CN1CCCC(n2nc(Cc3ccc(Cl)cc3)c3ccccc3c2=O)CC1.Cl (stereo unspecified) [Azelastine HCl],scaled lipid accumulation score,[2],active: 1.09
CC(C)Oc1ccc2c(=O)c3cc(C(=O)O)ccc3oc2c1,scaled lipid accumulation score,[1],inactive: ≤ 0
same,scaled lipid accumulation score,[2],inactive: ≤ 0
CCC(=O)O[C@]1(C(=O)CCl)[C@@H](C)C[C@H]2[C@@H]3C[C@H](F)C4=CC(=O)C=C[C@]4(C)[C@@]3(F)[C@@H](O)C[C@@]21C [Halobetasol Propionate],scaled lipid accumulation score,[4],inactive: ≤ 0
same,scaled lipid accumulation score,[2],inactive: ≤ -0.001
CC(=O)N[C@H]1[C@H]([C@H](O)[C@H](O)CO)OC(C(=O)O)=C[C@@H]1NC(=N)N [Zanamivir],scaled lipid accumulation score,[4],inactive: ≤ 0
same,scaled lipid accumulation score,[2],inactive: ≤ 0
CNCCC(Oc1ccc(C(F)(F)F)cc1)c1ccccc1.Cl (stereo unspecified),scaled lipid accumulation score,[2],active: 0.914
CCN1CC(CCN2CCOCC2)C(c2ccccc2)(c2ccccc2)C1=O (stereo unspecified) [Doxapram HCl],scaled lipid accumulation score,[4],inactive: ≤ 0
same,scaled lipid accumulation score,[2],inactive: ≤ -0.001
CCN1CC(CCN2CCOCC2)C(c2ccccc2)(c2ccccc2)C1=O (stereo unspecified),scaled lipid accumulation score,library stock concentration: 10.4 mM,inactive: ≤ 0
CCCCCCCCCCCCCCCCCCOC[C@@H](COP(=O)([O-])OCC[N+](C)(C)C)OC [1-Octadecyl-2-methylglycero-3 PC],scaled lipid accumulation score,[1],inactive: ≤ -0.021
Cc1c(C(=O)NN2CCOCC2)nn(-c2ccc(Cl)cc2Cl)c1-c1ccc(I)cc1,scaled lipid accumulation score,[2],inactive: 0.185
C[C@]12CC[C@@H]3c4cc(O)c(O)cc4CC[C@H]3[C@@H]1CC[C@@H]2O [2-Hydroxyestradiol],scaled lipid accumulation score,[1],inactive: ≤ 0
N[C@@H](C(=O)N[C@@H]1C(=O)N2C(C(=O)O)=C(CSc3cn[nH]n3)CS[C@H]12)c1ccc(O)cc1,scaled lipid accumulation score,[2],inactive: ≤ 0
COc1ccc(C(=O)NCc2ccc(OCCN(C)C)cc2)cc1OC,scaled lipid accumulation score,[2],inactive: 0.061 and inactive: 0.313
N[C@@H](C(=O)N[C@@H]1C(=O)N2C(C(=O)O)=C(Cl)CS[C@H]12)c1ccccc1,scaled lipid accumulation score,[2],inactive: ≤ 0
N[C@@H](C(=O)N[C@@H]1C(=O)N2C(C(=O)O)=C(Cl)CS[C@H]12)c1ccccc1 [Cefaclor],scaled lipid accumulation score,,inactive: ≤ 0
same,scaled lipid accumulation score,library stock concentration: 5.4 mM,inactive: ≤ 0
same,scaled lipid accumulation score,[2],inactive: ≤ 0
O=C(O)CCC/C=C\C[C@@H]1CO[C@H](C(F)(F)F)O[C@@H]1c1ccccc1O,scaled lipid accumulation score,[2],inactive: ≤ 0
CC(Oc1ccccc1)C(=O)N[C@@H]1C(=O)N2[C@@H]1SC(C)(C)[C@@H]2C(=O)O (stereo partly specified) [Phenethicillin potassium salt],scaled lipid accumulation score,,inactive: 0.016
CC(Oc1ccccc1)C(=O)N[C@@H]1C(=O)N2[C@@H]1SC(C)(C)[C@@H]2C(=O)O (stereo partly specified) [Phenethicillin potassium],scaled lipid accumulation score,library stock concentration: 5 mM,inactive: ≤ 0
OC[C@H]1O[C@@H](O[C@@H]2[C@@H](CO)OC(O)(CO)[C@H]2O)[C@H](O)[C@@H](O)[C@H]1O (mixture of isomers) [Lactulose],scaled lipid accumulation score,library stock concentration: 5.8 mM,inactive: 0.02
same,scaled lipid accumulation score,[2],inactive: 0.096
Cc1cc(Nc2nc(N[C@@H](C)c3ncc(F)cn3)ncc2Cl)[nH]n1,scaled lipid accumulation score,[5],inactive: 0.018
same,scaled lipid accumulation score,[6],inactive: ≤ -0.009
same,scaled lipid accumulation score,[7],inactive: ≤ -0.009
same,scaled lipid accumulation score,[4],inactive: ≤ 0
same,scaled lipid accumulation score,[2],inactive: ≤ 0 and inactive: ≤ -0.001
O=C(O)c1cc(O)c2ccc(Cl)cc2n1 [7-Chlorokynurenic acid],scaled lipid accumulation score,[2],inactive: 0.023
NCCS(=O)O [Hypotaurine],scaled lipid accumulation score,[2],inactive: ≤ -0.07
COC[C@H](NC(=O)c1cnc(C)s1)C(=O)N[C@@H](COC)C(=O)N[C@@H](Cc1ccccc1)C(=O)[C@@]1(C)CO1 [Oprozomib (ONX 0912)],scaled lipid accumulation score,[4],inactive: 0.798
same,scaled lipid accumulation score,[2],inactive: 0.588
CCCCCC(O)C=CC1CC2CC(C1CC=CCCCC(=O)O)C2(C)C [15(R)-Pinane Thromboxane A2],scaled lipid accumulation score,[1],inactive: ≤ 0
O=C(O)CC1CC(c2ccccc2)=NO1 (stereo unspecified),scaled lipid accumulation score,[4],inactive: ≤ -0.009
same,scaled lipid accumulation score,[2],inactive: ≤ 0
CN(C)[C@@H]1C(O)=C(C(N)=O)C(=O)[C@@]2(O)C(O)=C3C(=O)c4c(O)ccc(Cl)c4[C@@H](O)[C@H]3C[C@@H]12 [Demeclocycline hydrochloride],scaled lipid accumulation score,,inactive: ≤ 0
same,scaled lipid accumulation score,library stock concentration: 4 mM,inactive: ≤ -0.001
same,scaled lipid accumulation score,[2],inactive: ≤ 0
CN(C)[C@@H]1C(O)=C(C(N)=O)C(=O)[C@@]2(O)C(O)=C3C(=O)c4c(O)ccc(Cl)c4[C@@H](O)[C@H]3C[C@@H]12 [Demeclocycline],scaled lipid accumulation score,[2],inactive: ≤ 0
O=C(O)/C(=C\c1c(C(=O)O)[nH]c2cc(Cl)cc(Cl)c12)c1ccccc1,scaled lipid accumulation score,[2],inactive: 0.017
O=C1c2ccccc2S(=O)(=O)N1CCCCN1CCN(c2ncccn2)CC1 [Ipsapirone],scaled lipid accumulation score,[2],inactive: 0.014
Cn1c([N+](=O)[O-])cnc1COC(N)=O [Ronidazole],scaled lipid accumulation score,,inactive: ≤ 0
same,scaled lipid accumulation score,[4],inactive: ≤ 0
same,scaled lipid accumulation score,[2],inactive: ≤ -0.001 and inactive: 0.008
COC(=O)c1ccc(O)c2nc3c(C=O)c(O)cc(O)c3nc12 [Lomofungin],scaled lipid accumulation score,library stock concentration: 6.4 mM,inactive: ≤ -0.006
NC(N)=O,scaled lipid accumulation score,[2],inactive: ≤ 0
same,scaled lipid accumulation score,library stock concentration: 33.3 mM,inactive: ≤ 0
CCN(c1cc(-c2ccc(CN3CCOCC3)cc2)cc(C(=O)NCc2c(C)cc(C)[nH]c2=O)c1C)C1CCOCC1,scaled lipid accumulation score,[4],inactive: ≤ -0.009
same,scaled lipid accumulation score,[2],inactive: 0.14
CCCCC[C@H](O)/C=C/[C@H]1[C@H](O)CC(=O)[C@@H]1C/C=C/CCCC(=O)O [5-trans Prostaglandin E2],scaled lipid accumulation score,[1],inactive: ≤ 0
c1ccc2nc(C3=NCCN3)cnc2c1 [BU 239 hydrochloride],scaled lipid accumulation score,[2],inactive: ≤ 0
CN(CCOc1ccc(CC2SC(=O)NC2=O)cc1)c1ccccn1 (stereo unspecified) [Rosiglitazone],scaled lipid accumulation score,[1],inactive: 0.047
same,scaled lipid accumulation score,[4],inactive: 0.03
same,scaled lipid accumulation score,[2],inactive: ≤ 0 and inactive: ≤ -0.027
CN(CCOc1ccc(CC2SC(=O)NC2=O)cc1)c1ccccn1 (stereo unspecified) [Rosiglitazone (potassium salt)],scaled lipid accumulation score,[1],inactive: 0.04
CN(CCOc1ccc(CC2SC(=O)NC2=O)cc1)c1ccccn1 (stereo unspecified),scaled lipid accumulation score,[2],inactive: ≤ 0
CCC(=O)OCC(=O)[C@@]1(OC(=O)CC)[C@H](C)C[C@H]2[C@H]3[C@H]([C@@H](O)C[C@@]21C)[C@@]1(C)C=CC(=O)C=C1C[C@H]3Cl [Alclometasone dipropionate],scaled lipid accumulation score,,inactive: ≤ 0
C[n+]1cc2c3c(ccc2c2ccc4cc5c(cc4c21)OCO5)OCO3 [Sanguinarine],scaled lipid accumulation score,,active: 0.869
